Assay results: PubChem BioAssay AID1508624 (National Center for Advancing Translational Sciences (NCATS), 2021)
Out of some 48,000 compounds screened, about 120 (0.25%) were called active. About 4% were inconclusive and are not listed. The call rests on the fitted dose curve; in most records, active means well fitted activation curve with a large enough effect; inconclusive means small, poorly fitted or top-dose-only effect, or another doubt; inactive means no such curve, though single readings can be large or run the other way. The list shows a part of the results.

Assay: Primary qHTS for Identification of Small Molecule Activators of Huntingtin-Antisense Promoter Activity; further: nearly all actives have a fitted effect of over 55% in size
Settings: HEK293 HTT-AS promoter firefly luciferase reporter, 24 h; series mostly up to 57.5 µM; activity change, positive = activation: at the top concentration
Method in brief: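 Firefly luciferase signal from promoter-reporter HEK293 cells was scaled between vehicle (0%) and zero RLU (-100%). Compounds were tested at final concentrations of up to 57.5 uM over 24 h at 37 degrees C. PTC124 at 50 uM final served as control inhibitor.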

Activity change, positive = activation, inactive:
Cc1ccc(N(CC(=O)NCCSc2ccccc2)S(=O)(=O)c2ccc(F)cc2)cc1 -59.2%
CCOCCCNC(=O)C(=O)Nc1c2c(nn1-c1ccccc1)CSC2 -14.9%
O=C(COc1ccc(Cl)cc1)NCC(c1ccco1)S(=O)(=O)c1ccc(F)cc1 (centres undefined) -28.6%
COc1ccc(CNC(=O)c2cc3cccc4c3n2CC(C)S4)cc1OC (centres undefined) -24.5%
COCCCn1c(=O)c2sccc2n2c(CCCC(=O)Nc3cccc(OC)c3)nnc12 -12%
Cc1ccc(CNS(=O)(=O)c2ccc3[nH]c4c(c3c2)CCCCC4)cc1 -25.1%
Cc1cccc(NC(=O)C2CCCN(S(=O)(=O)c3ccc4c(c3)CCCC(=O)N4)C2)c1 (centres undefined) -23.6%
COCCCn1c(SCC(=O)Nc2ccc(F)cc2)nc2c(sc3ccccc32)c1=O -12.9%
COc1cccc(Nc2nc3c(S(=O)(=O)c4cc(C)ccc4C)nnn3c3ccsc23)c1 -19.3%
Cc1ccc(NC(=O)N2CCN(Cc3nc4ccc(C)cc4o3)CC2)cc1 -21.8%
CCOC(=O)N1CCN(S(=O)(=O)N2CCCC(C(=O)NCc3cc(Br)ccc3OC)C2)CC1 (centres undefined) -26.4%
CC(C)c1ccc2c(c1)c(SC(C)(C)C)c(CC(C)(C)C(=O)O)n2Cc1ccc(Cl)cc1 -29%
Cc1cc(=O)c2cc(C(=O)Nc3ccc(F)cc3)ccc2[nH]1 2.27%
Cc1cc(C)c(NC(=O)CSC2=Nc3ccccc3C3=NC(CC(=O)NCc4cccs4)C(=O)N23)c(C)c1 (centres undefined) -14%
CCN1CCc2nc3sc(C(=O)Nc4ccccc4OC(F)(F)F)c(N)c3cc2C1 -6.15%
COc1ccc(C)cc1-n1nnc(S(=O)(=O)c2ccc(C)cc2)c1C -23.2%
O=C(Cn1c(-c2cccs2)cc2cc(F)ccc21)N1CCN(c2ccccc2)CC1 -23.5%
COc1ccc(CNc2oc(/C=C/c3cc(OC)c(OC)c(OC)c3)nc2C#N)cc1 -23.8%
CCOc1ccc(Nc2oc(/C=C/c3ccc(OC)c(OC)c3)nc2C#N)cc1 -18.3%
Cc1cccn2c(=O)c(C(=O)NC(C)c3ccccc3)c(O)nc12 (centres undefined) -28.3%
O=C(Nc1sc2c(c1C(=O)NCC1CCCO1)CCC2)c1cc(=O)c2cc(Cl)ccc2o1 (centres undefined) -6.59%
Cc1ccc(CCNC(=O)c2ccc3c(c2)N(Cc2ccccc2F)C(=O)c2ccccc2S3=O)cc1 (centres undefined) -1.02%
COc1cccc(NC(=O)CCCn2c(=O)c3cccn3c3cccnc32)c1 -13.4%
CCOC(=O)c1cc(-c2ccccc2)n(CC(=O)Nc2ccccc2OCC)c1C -5.58%
Cn1nnnc1SCCCNCc1cc(Br)ccc1OCc1ccccc1F -25.6%
Fc1ccc(-c2csc(=Nc3cccc(C(F)(F)F)c3)n2Cc2ccc3c(c2)OCO3)cc1 -10.9%
O=C1C(=O)N(C2CCNCC2)CCN1Cc1ccccc1 -1.6%
Cc1cc(Nc2nc(N[C@@H](C)c3ccc(F)cc3)c(C#N)cc2F)n[nH]1 -2.24%
Cc1cccc(C)c1NC(=O)CCCn1c(=O)c2cccn2c2ccccc21 -6.66%
Fc1ccc(-c2cc(-c3ccccc3)c3c(n2)-c2ccccc2OC3)cc1 -10.7%
COc1ccc(-c2nc(CCNC(=O)c3ccccc3)cs2)cc1OC -19.2%
CCOC(=O)c1c(S(=O)(=O)NCC(=O)Nc2ccc(C(C)=O)cc2)c(C)n(C)c1C -9.63%
COc1cc(NC(=O)CN2C(=O)COc3ccc(S(=O)(=O)NC4CCCC4)cc32)cc(OC)c1 -11.4%
CCc1ccc(NC(=O)c2ccc(Cn3nc(N4CCN(c5ccccc5)CC4)ccc3=O)o2)cc1 -32.3%
O=C(c1ccc2c(c1)N(Cc1c(F)cccc1Cl)C(=O)c1ccccc1S2)N1CCCC1 -25.2%
Cc1ccc(Cl)cc1-n1ncc2c(Nc3ccc4c(c3)OCCO4)ncnc21 -42.8%
O=C(CO)N1CCC(c2[nH]nc(-c3ccc(Cl)cc3)c2-c2ccncn2)CC1 -16.2%
CC(=O)N1CCCC1c1nc2ccccc2n1Cc1ccc(F)cc1 (centres undefined) -11.1%
COc1cc(NS(=O)(=O)c2c(C(=O)N3CCCCC3)c(C)n(C)c2C)cc(OC)c1OC -2.14%
CCC(C)c1ccccc1OCC(=O)Nc1ccc(S(=O)(=O)Nc2cc(C)on2)cc1 (centres undefined) -5.01%
CC1CCc2c(sc3nnn(CC(=O)Nc4c(C(C)C)cccc4C(C)C)c(=O)c23)C1 (centres undefined) -20.1%
O=C(Nc1cccc2cccnc12)c1ccc(-c2cccc(Cl)c2)o1 -0.514%
COc1ccc(-c2cc3ncc(C(=O)c4cc([N+](=O)[O-])ccc4O)cn3n2)cc1 -69%
CCCn1c2ccccc2c2cnn(CC(=O)NCCCN(CC)c3ccccc3)c(=O)c21 -21.7%
CCc1ccc(NS(=O)(=O)c2ccc3[nH]cc(C(=O)NCc4ccc(C)cc4)c(=O)c3c2)cc1 -31.6%
CCOc1ccc(-n2c(=O)c3c4c(sc3n(Cc3cccc(C)c3)c2=O)CCCC4)cc1 16.7%
Clc1ccc2nc(Nc3ccccc3Cl)nc(-c3ccccc3)c2c1 10%
CC(=O)O[C@@H]1C(=O)O[C@@H]2[C@H]1OC(=O)[C@@H]2OC(C)=O -17.8%
CCc1ccc(NCc2cc3cc4c(cc3n(CC(=O)Nc3ccccc3Cl)c2=O)OCO4)cc1 -27.1%
CCOCCCNC(=O)C1CCN(c2cc(C)nc3c(-c4ccc(Cl)cc4)c(C)nn23)CC1 -0.178%
COc1ccc(OC)c(NC(=O)c2c(NCc3ccc(OC)c(OC)c3)sc3c2CCC3)c1 -15.6%
CCOc1ccccc1NC(=O)Nc1cc(C(=O)NCc2ccc(C)cc2)ccc1N1CCCC1 -5.26%
O=C(Nc1ccc(Br)cc1F)C(NS(=O)(=O)c1cccc2nsnc12)c1ccccc1 (centres undefined) -4.49%
Cc1ccc(NC(=O)c2cc3c(-c4ccccc4)nn(-c4ccccc4)c3s2)cc1 -0.918%
COc1ccc(NC(=O)Cn2c(=O)n(CC(=O)NCCc3ccccc3)c(=O)c3ccccc32)cc1 -6.62%
COc1ccc(CNC(=O)c2cc3c(-c4ccccc4F)nn(C)c3s2)cc1 -29.3%
CC/C(=C(/CC)c1ccc(O)cc1)c1ccc(O)cc1 -44.5%
COc1ccc(NC(=O)CN2C(=O)CCc3cc(S(=O)(=O)N4CCOCC4)ccc32)c(OC)c1 -18%
CCOc1ccccc1NC(=O)Cn1c(=O)n(-c2ccccc2)c(=O)c2c1c1cc(C)ccc1n2C -5.54%
CCCS(=O)c1ccc2nc(NC(=O)OC)[nH]c2c1 (centres undefined)
CCN(C(=O)CSc1nnc(-c2cc3occc3n2C)n1-c1ccccc1C)c1cccc(C)c1 -3.16%
COc1ccc(-c2cn3c(n2)sc2cc(C(=O)NCCCN4CCCCC4)ccc23)cc1 -6.13%
COc1ccc(N2CCN(C(=O)c3ccc4c(=O)n(CCc5ccc(OC)c(OC)c5)c(=O)[nH]c4c3)CC2)cc1 -49.7%
CCN(CC)C(=O)c1cnn(-c2ccc(F)cc2)c1-n1cccc1 -8.47%
CCc1ccc(CNC(=O)CSc2cc(=O)n(CC)c3ccccc23)cc1 -7.72%
CCNC(=O)c1c(C)oc2ncn(C)c(=O)c12 -21.1%
Cc1nn(CCCC(=O)Nc2cc(C(F)(F)F)ccc2Cl)c(=O)c2c1sc1ccccc12 -5.53%
CCc1nn(CC(=O)N(CC)Cc2ccccc2)c(=O)c2cc3occc3n12 -24.8%
CC(C)(Sc1ccc(CCN(CCCCC2CCCCC2)C(=O)NC2CCCCC2)cc1)C(=O)O -2.8%
CC1CCCCN1S(=O)(=O)c1cc2c(=O)nc3ccccn3c2cc1Cl (centres undefined) 13.7%
CCOc1ccc(C2C(C(=O)Nc3ccccc3OC)=C(C)Nc3c(C(=O)Nc4cccc(C)c4)cnn32)cc1 (centres undefined) -8.54%
O=C1CC(c2nnc(Cc3cccc(Cl)c3)o2)CN1c1ccccc1 (centres undefined) -22.5%
Cc1ccc2c(c1)cc1c(=O)n(Cc3ccc(Cl)cc3)nc(C)n12 -4.41%
COc1cccc(-c2cc(C(=O)Nc3ccc(Br)c(C)c3)[nH]n2)c1 12.4%
COc1ccc(-n2c(=O)c3ccc(C(=O)NCc4ccc(C)cc4)cc3n(Cc3cccc(Cl)c3)c2=O)cc1 -21%
COc1ccc(CN(Cc2ccco2)C(=O)c2ccccc2F)cc1 -13.6%
Cc1cccc(C)c1NS(=O)(=O)c1ccc2c(c1)[C@H]1C=CC[C@H]1[C@@H](c1ccc(Cl)cc1)N2 -20.2%
CCn1c(CC2C(=O)Nc3ccccc32)nc2ccccc2c1=O (centres undefined) -15.2%
O=C(Nc1cc(-c2nc3ccccc3o2)ccc1Cl)c1ccc(Br)o1 17.9%
Cc1c(C(=O)NCc2ccccc2)sc2nc[nH]c(=O)c12 6.81%
COc1cc(-c2noc(-c3ccc(N(C)C)c([N+](=O)[O-])c3)n2)cc(OC)c1OC -7.09%
Cc1ccc(CCNc2nc3c(S(=O)(=O)c4ccccc4)nnn3c3ccsc23)cc1 -13.6%
Cc1ccccc1Cn1c2ccccc2c2cnn(CC(=O)NCCCc3ccccc3)c(=O)c21 -13.3%
COc1cccc(Cc2nc3ccccc3nc2SCC(=O)N2CCN(c3ccccc3)CC2)c1 -23.9%
CSc1ccc2c(c1)N(CCC1CCCCN1C)c1ccccc1S2 (centres undefined) -28.4%
O=C(Cn1c(-c2cccs2)cc2cc(F)ccc21)N1CCN(c2cccc(Cl)c2)CC1 -17%
CC(=O)Nc1ccc(S(=O)(=O)NC2(C(F)(F)F)NC(=O)N(c3ccccc3F)C2=O)cc1 (centres undefined) 2.44% [at 11.5 µM, percent change from vehicle, -100% = no light]
CCC1CN(C(=O)Nc2cccc(OC)c2)c2ccccc2O1 (centres undefined) -23.9%
COc1ccc2c(c1)c1c(c(=O)n(-c3ccc(F)c(Cl)c3)c(=O)n1CC(N)=O)n2C -0.732%
CCOc1ccc(-c2c(C)nn3c(C)c(C(=O)NCCc4ccccc4)cnc23)cc1OCC -23.8%
COc1cccc2c1cc1c(=O)n(CC(=O)O)nc(C)n12 -4.26%
CCOc1ccc(Nc2sc(C(=O)c3ccc4c(c3)OCO4)c(N)c2S(=O)(=O)c2ccc(C)cc2)cc1 -16.5%
Cn1nc(C(=O)N2CCN(c3ccc(Cl)cc3)CC2)c2c1-c1ccccc1S(=O)(=O)C2 -25.2%
COc1ccc(-c2cc(C(F)(F)F)nc(NCc3ccc(Cl)cc3)n2)cc1 -22.5%
